Counter-ions that a name gives are not always drawn. Some of the results follow. Single values are uncertain, as repeats are few or missing.
What follows are compounds tested on Ov4Cis (assay: log2 surviving fraction relative to plate median (drug vs vehicle, or drug+dl922-947 vs dl922-947 alone); ovarian cancer lines: OVCAR4 is platinum-sensitive while Ov4Cis resists cisplatin and Ov4Carbo carboplatin; higher = more cell survival). Conditions: dl922-947 oncolytic adenovirus co-treatment: MOI 10; compound concentration: 10 uM; 192 h.

| Structure (SMILES) | log2 surviving fraction |
| --- | --- |
| C[C@@H](c1ncncc1F)[C@](O)(Cn1cncn1)c1ccc(F)cc1F [Voriconazole] | 0.0259 |
| C=CCOc1ccccc1OCC(O)CNC(C)C (centres undefined) [Oxprenolol HCl] | 0.547 |
| NC(=O)N1c2ccccc2C=Cc2ccccc21 [Carbamazepine (Carbatrol)] | 0.0641 |
| CN1C2=CC(=O)/C(=N\NC(N)=O)C=C2CC1S(=O)(=O)O (centres undefined) [Carbazochrome sodium sulfonate] | -0.721 |
| COc1ccccc1OCC(O)CO (centres undefined) [Guaifenesin (Guaiphenesin)] | 0.113 |
| Cc1ccc(C(=O)Nc2ccc(CN3CCN(C)CC3)c(C(F)(F)F)c2)cc1C#Cc1cnc2cccnn12 | -9.63 |
| COc1ccc(C(=O)N2CCCC2=O)cc1 [Aniracetam] | 0.594 |
| C[C@H](Cn1cnc2c(N)ncnc21)OCP(=O)(O)O [Tenofovir (Viread)] | -0.496 |
| CN(C)CCCN1c2ccccc2CCc2ccc(Cl)cc21 [Clomipramine hydrochloride (Anafranil)] | -2.98 |
| Nc1ccc(S(=O)(=O)Nc2ccccn2)cc1 [Sulfapyridine (Dagenan)] | 0.45 |
| Oc1c(Cl)cc(Cl)c2cccnc12 [Chloroxine] | -2.94 |
| CC1(C)S[C@@H]2[C@H](NC(=O)C(C(=O)O)c3ccccc3)C(=O)N2[C@H]1C(=O)O (some centres undefined) [Carbenicillin disodium] | -0.8 |
| CCC(C)n1ncn(-c2ccc(N3CCN(c4ccc(OCC5COC(Cn6cncn6)(c6ccc(Cl)cc6Cl)O5)cc4)CC3)cc2)c1=O (centres undefined) [Itraconazole (Sporanox)] | 0.657 |
| Oc1ccc(OCc2ccccc2)cc1 [Monobenzone (Benoquin)] | -3.84 |
| C[N+](C)(C)CCO.[Cl-] [Choline Chloride] | 0.612 |
| CN1CCC(=C2c3ccccc3CCc3sccc32)CC1 [Pizotifen malate] | -3.35 |
| CO[C@H]1/C=C/O[C@@]2(C)Oc3c(C)c(O)c4c(c3C2=O)C2=NC3(CCN(CC(C)C)CC3)NC2=C(NC(=O)/C(C)=C\C=C\[C@H](C)[C@H](O)[C@@H](C)[C@@H](O)[C@@H](C)[C@H](OC(C)=O)[C@@H]1C)C4=O [Rifabutin (Mycobutin)] | -1.48 |
| C#C[C@]1(O)CC[C@H]2[C@@H]3CCc4cc(O)ccc4[C@H]3CC[C@@]21C [Ethinyl Estradiol] | -1.34 |
| C[C@@H](O[C@H]1OCCN(Cc2n[nH]c(=O)[nH]2)[C@H]1c1ccc(F)cc1)c1cc(C(F)(F)F)cc(C(F)(F)F)c1 [Aprepitant (MK-0869)] | -1.3 |
| Cc1cc(C2CCCCC2)n(O)c(=O)c1 [Ciclopirox ethanolamine] | -5.31 |

| Structure (SMILES) | log2 surviving fraction |
| --- | --- |
| NC(=O)c1ncn([C@@H]2O[C@H](CO)[C@@H](O)[C@H]2O)c1N [Acadesine] | 0.522 |
| O=C(O)CCc1nc2ccccc2[nH]1 [Procodazole] | -0.0931 |
| Cc1ccnc(NS(=O)(=O)c2ccc(N)cc2)n1 [Sulfamerazine] | 0.237 |
| O=C1O[C@H]([C@@H](O)CO)C([O-])=C1O.[Na+] [Sodium ascorbate] | -0.0615 |
| CN1[C@@H]2CC[C@H]1C[C@@H](OC(=O)C(CO)c1ccccc1)C2 (some centres undefined) [Atropine] | -1.43 |
| Cc1cnc(C(=O)O)c[n+]1[O-] [Acipimox] | 0.689 |
| Cn1c(=O)c2[nH]cnc2n(C)c1=O [Aminophylline (Truphylline)] | 0.566 |
| C[N+](C)(CCOc1ccccc1)Cc1ccccc1.O=C([O-])c1cc2ccccc2cc1O [Bephenium Hydroxynaphthoate] | 0.78 |
| Nc1nnc(-c2cccc(Cl)c2Cl)c(N)n1 [Lamotrigine] | -0.263 |
| CC(C)NCC(O)c1ccccc1Cl (centres undefined) [Clorprenaline HCL] | -2 |
| O=C(O)c1ccc(-n2nc(-c3ccccc3O)nc2-c2ccccc2O)cc1 [Deferasirox (Exjade)] | -1.9 |
| CN(N=O)C(=O)N[C@@H](C=O)[C@@H](O)[C@H](O)[C@H](O)CO [Streptozotocin (Zanosar)] | -0.284 |
| O=C1CC[C@@]2(O)[C@H]3Cc4ccc(O)c5c4[C@@]2(CCN3CC2CC2)[C@H]1O5 [Naltrexone HCl] | 0.333 |
| CCCN1CCCC[C@H]1C(=O)Nc1c(C)cccc1C [Ropivacaine HCl] | -0.458 |
| C[C@]12CC[C@H](O)CC1=CC[C@@H]1[C@@H]2CC[C@]2(C)C(c3cccnc3)=CC[C@@H]12 [Abiraterone (CB-7598)] | 0.792 |
| C=CC(=O)N1CCC[C@@H](n2nc(-c3ccc(Oc4ccccc4)cc3)c3c(N)ncnc32)C1 | 1.22 |
| Cn1c(=O)c2c(ncn2CC(O)CO)n(C)c1=O (centres undefined) [Dyphylline (Dilor)] | -0.155 |
| C=C1/C(=C\C=C2/CCC[C@]3(C)[C@@H]([C@H](C)/C=C/[C@H](C)C(C)C)CC[C@@H]23)C[C@@H](O)C[C@@H]1O [Doxercalciferol (Hectorol)] | -0.103 |
| O=C(O)c1cc(-c2ccccc2)nc2ccccc12 [Cinchophen] | -0.238 |

Reference: the supplement of paper PMC8813932
